Hit rate of the full screen: of about 52,000 compounds, about 4,300 (8.3%) were called active. No stated cut-off is given here; in the data, active means survival mostly below about 52% (no sharp cut-off); inactive means mostly above about 56%. The list shows a part of the results.
Tested on: DeltatarO mutant
Assay: S. aureus survival, RN4220 and DeltatarO strains – OD600, teichoic acid synthesis inhibitors, primary screen (AID 463173)
Conditions: S. aureus RN4220 wild type/DeltatarO growth, OD600, 18 h, hits give low values, screened at 18.75 µg/mL (by protocol)

Row | Structure (SMILES) | survival
1 | Cc1ccccc1C(=O)Nc1ccc2nc(SCCOc3ccccc3)sc2c1 | inactive: 79%
2 | Fc1ccc(CNc2cc(-c3ccccc3)nc3nncn23)cc1 | active: 17%
3 | N#Cc1cc2cc3c(cc2nc1SCC(=O)N1CCN(c2ccc(F)cc2)CC1)OCCO3 | inactive: 67%
4 | CCc1ccc(CNC(=O)Cc2c(C(=O)O)c(C)cn2C)cc1 | inactive: 91%
5 | CCc1nnc(SCc2nc(-c3ccccc3)oc2C)c2cc3sccc3n12 | inactive: 75%
6 | Cc1ccc(C)c(NC(=O)Cn2c(=O)n(Cc3cccs3)c(=O)c3cccnc32)c1 | inactive: 66%
7 | COc1ccc(-c2cn3nc(N4CCC(C(=O)Nc5cc(Cl)ccc5OC)CC4)sc3n2)cc1 | inactive: 74%
8 | CC(C)(C)OC(=O)N1CCC(c2c(C(=O)N3CCN(c4ncccn4)CC3)cnn2-c2ccc(F)cc2F)CC1 | active: 6%
9 | CCOC(=O)C1=C(CS(=O)(=O)c2ccc(C)c(C)c2)NC(=O)NC1c1ccccc1OCC (centres undefined) | inactive: 73%
10 | CCOc1ccc(NC(=O)Cn2c(=O)n(Cc3nc(-c4ccccc4)no3)c(=O)c3ccccc32)cc1 | inactive: 84%
11 | O=C(Cn1c(=O)ccc2cc(S(=O)(=O)N3CCCC3)ccc21)NCc1ccc(F)cc1 | inactive: 107%
12 | COc1ccc(N(CC(=O)N2CCN(c3cccc(OC)c3)CC2)S(=O)(=O)c2c(C)noc2C)cc1 | inactive: 71%
13 | COc1cccc(C2Nc3ccccc3-c3nnc(SCc4ccccc4)nc3O2)c1OC (centres undefined) | inactive: 140%
14 | O=C(Nc1ccc(F)c(Cl)c1)C1CCCN1S(=O)(=O)c1ccc(F)cc1 (centres undefined) | inactive: 76%
15 | Cc1ccc(S(=O)(=O)c2nc(-c3ccccc3)oc2SCC(=O)NC2CCCCC2)cc1 | inactive: 166%
16 | CCNC(=S)N1CCN(C(=O)c2ccco2)CC1 | inactive: 74%
17 | COC(=O)c1ccc(OC2OCCOC2Oc2ccc(C(=O)OC)cc2)cc1 (centres undefined) | inactive: 90%
18 | COc1ccc(-n2ncc3c2ncn2nc(-c4ccc(Cl)cc4Cl)nc32)cc1 | inactive: 68%
19 | COc1cccc(OC)c1Cn1nnc2c(=O)[nH]c(C3CCN(C(=O)c4ccccc4)CC3)nc21 | inactive: 56%
20 | COc1cc(OC)c(NC(=O)c2ccc3c(Cl)c4c(nc3c2)CCCC4)cc1Cl | inactive: 85%
21 | COc1ccc(CCNC(=O)CSCc2nc(-c3ccc(OC)c(OC)c3)oc2C)cc1OC | inactive: 69%
22 | COCCNc1ccc(-c2nc(-c3cccc(C)c3)no2)cc1[N+](=O)[O-] | inactive: 81%
23 | CN1C(=O)c2ccccc2Sc2ccc(NC(=O)COc3ccc(Cl)cc3)cc21 | inactive: 65%

Row | Structure (SMILES) | survival
24 | O=C1CN(c2ccccc2)C(=S)N1C(=O)c1ccccc1 | inactive: 91%
25 | Nc1nc(SC#CC(F)(F)F)ns1 | active: 13%
26 | CC1CCCN(C(=O)Cn2c(=O)n(CC3CCC(C(=O)NC(C)C)CC3)c(=O)c3sccc32)C1 (centres undefined) | inactive: 120%
27 | Cn1c(=O)n(CCCc2ccccc2)c(=O)c2c1nc1n2CCN1c1ccccc1 | inactive: 75%
28 | CCOC(=O)c1scc(-c2ccc(C)cc2)c1S(=O)(=O)Nc1ccc(F)c(F)c1 | inactive: 82%
29 | O=C(Nc1ccccc1)C1CCN(C(=O)c2cccs2)CC1 | active: 67%
30 | COc1ccc2c(c1)c(=O)c(C(=O)c1ccc(Cl)cc1)cn2CC(=O)Nc1ccc2c(c1)OCO2 | inactive: 81%
31 | CCN(Cc1ccccc1)C(=O)CCS(=O)(=O)c1ccc2c(c1)oc(=O)n2C | inactive: 122%
32 | CCOC(=O)N1CCc2c(sc(NCc3sccc3C)c2C(=O)Nc2ccccc2OCC)C1 | inactive: 94%
33 | CCOC(=O)c1ccc(NC(=O)CN2C(=O)CC(c3ccc(C)c(C)c3)=Nc3ccccc32)cc1 | inactive: 71%
34 | Cc1c(Cl)cccc1NC(=O)NCCOCCn1c(=O)oc2ccccc21 | inactive: 51%
35 | CCOc1ccc(CCNC(=O)c2ccc3c(c2)N(Cc2cccc(Cl)c2)C(=O)c2ccccc2S3(=O)=O)cc1OCC | inactive: 144%
36 | Cc1cc(C)nc(SCC(N)=O)n1 | inactive: 93%
37 | Cc1cc(NC(=O)CN2C(=O)CSc3ccc(S(=O)(=O)N(C)C)cc32)ccc1Br | inactive: 93%
38 | CSc1ccc(CCNC(=O)c2ccc3c(c2)nc2n3CCOC2)cc1 | inactive: 79%
39 | CCOC(=O)c1c(NC(=O)c2nc(SC)ncc2Cl)sc(C)c1C | inactive: 85%
40 | COc1cccc(-c2ccnc3[nH]n(-c4ccccc4)c(=O)c23)c1 | inactive: 71%
41 | Cc1ccc(-n2c(SCC(=O)N3CCC(C)CC3)nc3c([nH]c4ccccc43)c2=O)cc1 | active: -5%
42 | CC(C)c1nnc(NC(=O)c2nc(S(=O)(=O)Cc3ccccc3)ncc2Cl)s1 | inactive: 46%
43 | Cc1ccc(NC(=O)c2ccc(F)c(S(=O)(=O)N3CCc4ccccc4C3)c2)cc1F | inactive: 88%
44 | COc1ccccc1CNC(=O)c1cc2c(=O)n(Cc3cccs3)ccc2nc1C | inactive: 83%
45 | COc1ccc(Cl)cc1NC(=O)CSc1cn(CC(=O)N2CCCC2)c2ccccc12 | inactive: 83%
46 | COc1cc(-c2noc(-c3cc(C)[nH]n3)n2)cc(OC)c1OC | inactive: 86%

Row | Structure (SMILES) | survival
47 | COc1cccc(NC(=O)C2CCN(S(=O)(=O)c3cc(-c4noc(C)n4)ccc3C)CC2)c1 | inactive: 122%
48 | O=C(N=Nc1c(O)n(CN2CCCC2)c2ccccc12)c1ccccc1 | inactive: 103%
49 | CCN1CCN(C(=O)c2cnn(-c3cccc(C)c3)c2C2CCN(C(=O)OC(C)(C)C)CC2)CC1 | inactive: 89%
50 | COc1cccc(CNC(=O)c2cccn2-c2nnc(N3CCCC3)s2)c1 | inactive: 83%
51 | CCn1cc(C(=O)N2CCN(c3ccccc3)CC2)c(=O)c2cc(S(=O)(=O)N3CCC(C)CC3)ccc21 | inactive: 81%
52 | CCOc1ccc(NC(=O)c2cn3c4c(ccc(Cl)c4c2=O)OC(C)C3)cc1 (centres undefined) | inactive: 84%
53 | Cc1ccc(-c2noc(C3CC(=O)N(c4ccc5c(c4)OCCO5)C3)n2)cc1 (centres undefined) | active: 46%
54 | Nc1nc2ccc(CCC(=O)O)cc2s1 | inactive: 100%
55 | COc1ccc(NC(=O)N(Cc2ccco2)C2CCN(C(C)=O)CC2)c(OC)c1 | inactive: 88%
56 | COc1ccc(CNC(=O)C2CCN(S(=O)(=O)c3cn(C)cn3)CC2)cc1 | inactive: 105%
57 | Cc1cc(-c2nc3ccccc3s2)ccc1NC(=O)c1cc(Cl)ccc1Cl | inactive: 59%
58 | N#CC1=C(N)C(C#N)(C#N)C(c2cccs2)C2CN(C(=O)OCc3ccccc3)CC=C12 (centres undefined) | inactive: 69%
59 | COc1ccc2c(C)c(CCC(=O)NCc3ccc(OC)c(OC)c3)c(=O)oc2c1 | inactive: 103%
60 | Cc1sc(NC(=O)COc2ccc(C(C)(C)C)cc2)c(C(=O)OC(C)C)c1C | active: 10%
61 | CCOc1cc(C2c3c(oc4ccccc4c3=O)C(=O)N2Cc2ccccc2Cl)ccc1O (centres undefined) | inactive: 85%
62 | CCc1ccc(N2C(=O)CS(=O)(=O)C23C(=O)N(Cc2ccccc2F)c2ccccc23)cc1 (centres undefined) | inactive: 93%
63 | COc1ccc2[nH]c(=O)c(C(c3nnnn3Cc3ccccc3)N3CCCC3)cc2c1 (centres undefined) | inactive: 89%
64 | O=C(NCCCN1CCN(c2cccc(Cl)c2)CC1)c1nnc(Cc2ccc(F)cc2Cl)o1 | inactive: 56%
65 | Cc1ccc(N2C(=O)C(CC(=O)Nc3ccccc3)N(CCC3=CCCCC3)C2=O)cc1 (centres undefined) | inactive: 67%
66 | Cc1ccc2nc(NC(=O)CSc3ncc(C(=O)Nc4ccccc4)c(=O)n3C)sc2c1 | inactive: 93%
67 | CCc1ccc(S(=O)(=O)c2cnc(SCC(=O)Nc3ccc(OC)cc3OC)[nH]c2=O)cc1 | inactive: 65%
68 | Cn1c2ccc(F)cc2c2nnc(SCCN3CCCCC3)nc21 | inactive: 174%
69 | CCCc1cc(=O)oc2cc(C)c3c(-c4ccccc4)c(C)oc3c12 | active: -10%

Row | Structure (SMILES) | survival
70 | CC(C)NC(=O)c1sc2ncccc2c1-n1cccc1 | inactive: 99%
71 | CCOc1ccccc1NC(=O)CN1C(=O)C(=O)c2ccccc21 | inactive: 94%
72 | COc1ccccc1CNC(=O)c1cc(-c2ccccc2)n[nH]1 | inactive: 80%
73 | O=C(CCS(=O)(=O)c1nc(-c2cccs2)cc(C(F)(F)F)n1)Nc1cccc(O)c1 | inactive: 66%
74 | CCOC(=O)Cn1cnc2c(cnn2-c2ccc(C)c(C)c2)c1=O | inactive: 100%
75 | CC1CCC(NC(=O)CCc2cn(Cc3ccc(F)cc3)c3ccccc23)CC1 (centres undefined) | inactive: 60%
76 | COc1ccc(NC(=O)c2nc(S(=O)(=O)Cc3ccc(C)cc3)ncc2Cl)cc1 | active: 32%
77 | Cc1ccccc1C(=O)NCc1ccc2c(c1)CCN2C(=O)c1ccc(F)cc1 | inactive: 88%
78 | O=C(O)C1=CC(c2ccc(Br)cc2)n2ncnc2N1 (centres undefined) | inactive: 103%
79 | CCOc1ccc(CCNC(=O)c2sc3nc4n(c(=O)c3c2C)CCCC4)cc1 | inactive: 75%
80 | Cc1sc2c(c1C)c(=O)n(Cc1ccccc1)c(=O)n2CC(=O)Nc1cccc(Cl)c1 | inactive: 71%
81 | O=C(COc1ccccc1)Nc1ccccc1N1CCN(c2ccccc2)CC1 | inactive: 95%
82 | CCc1ccc(N=C2NC(=O)CS2)cc1 | inactive: 64%
83 | O=C(O)Cn1nc(N2CCN(c3ccccc3)CC2)ccc1=O | inactive: 93%
84 | O=C(/C=C/c1ccco1)Nc1ccc(-c2cc3ccccc3oc2=O)cc1 | inactive: 50%
85 | COc1ccc(OCC(=O)N2CCN(C(=O)c3ccc(OC)cc3)CC2)cc1 | inactive: 69%
86 | CCOc1ccc(Nc2nc(Nc3ccc(OCC)cc3)nc(N3CCOCC3)n2)cc1 | active: 44%
87 | COc1ccc(CCNC(=O)CCCn2c(=O)c3cccn3c3ccc(F)cc32)cc1OC | active: 43%
88 | COc1ccc(NC(=O)CC2C(=O)N(c3ccc(C)cc3)C(=O)N2C2CCCC2)cc1 (centres undefined) | inactive: 128%
89 | CCOc1ccc(C(=O)c2cn(CC(=O)Nc3ccc(C)c(C)c3)c3ccc(OCC)cc3c2=O)cc1 | inactive: 77%

Source: PubChem BioAssay AID463173 (ICCB-Longwood Screening Facility, Harvard Medical School, 2010)
